# Experimental data taken from paper PMC6919601, “Identification of Plasmodium dipeptidyl aminopeptidase allosteric inhibitors by high throughput screening” (PLoS ONE, 2019).
# “And” between values parts separate entries of the source, which are not always exact repeats. Equal entries are not always repeated. Screen size: about 110,000 compounds; about 230 (0.21%) showed an effect of 50% or more. Some of the results follow.
# Target: DPAP1 (Plasmodium falciparum, UniProt Q8IIJ9)
# Assay: primary screen, percent inhibition; read by cleavage of a fluorogenic dipeptide substrate; higher = more effect of the substance
# Parameters: species or system P. falciparum D10 trophozoite lysates; single well
# 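Further: 30 min substrate incubation versus DMSO and 10 µM JCP410 controls.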
# DPAP1, sequence (Q8IIJ9 whole entry, looked up): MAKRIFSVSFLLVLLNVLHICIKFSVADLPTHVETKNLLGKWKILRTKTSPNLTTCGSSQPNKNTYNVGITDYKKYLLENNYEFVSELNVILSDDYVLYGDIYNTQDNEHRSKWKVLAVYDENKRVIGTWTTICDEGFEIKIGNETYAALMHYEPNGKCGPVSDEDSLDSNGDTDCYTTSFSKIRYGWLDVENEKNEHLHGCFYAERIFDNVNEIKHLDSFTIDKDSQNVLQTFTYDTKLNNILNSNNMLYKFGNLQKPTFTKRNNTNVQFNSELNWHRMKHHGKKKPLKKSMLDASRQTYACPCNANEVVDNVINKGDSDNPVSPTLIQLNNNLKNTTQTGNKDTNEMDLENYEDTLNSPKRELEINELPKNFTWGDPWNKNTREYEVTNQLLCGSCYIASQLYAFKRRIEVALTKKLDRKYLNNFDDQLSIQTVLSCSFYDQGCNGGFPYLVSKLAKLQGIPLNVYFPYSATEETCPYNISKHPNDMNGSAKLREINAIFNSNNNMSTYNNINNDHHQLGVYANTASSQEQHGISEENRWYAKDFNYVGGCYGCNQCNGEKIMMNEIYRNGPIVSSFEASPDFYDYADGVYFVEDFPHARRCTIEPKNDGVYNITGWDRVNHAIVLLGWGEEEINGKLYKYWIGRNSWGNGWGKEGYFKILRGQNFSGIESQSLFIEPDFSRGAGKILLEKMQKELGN
row,Compound,% Inhibition @ 10 uM
1,O=C(O)CCCNC1=NC2(CCCC2)Cc2ccccc21,-7.14%
2,C=CCSc1nc(-c2ccccc2)ccc1C#N,6.56%
3,O=C(O)CC1C(=O)OCN1C(=O)OCc1ccccc1 (stereo not shown),5.59%
4,CCCc1[nH]nc2c1C(c1c(OC)cccc1OC)C(C#N)=C(N)O2 (stereo not shown),-0.988%
5,COc1ccccc1C1CC(=O)NC(SCC(=O)Nc2ccccc2)=C1C#N (stereo not shown),2.69%
6,CC1=C(C#N)C(c2ccccc2C(F)(F)F)C2=C(O)CCCC2=N1 (stereo not shown),1%
7,CC(C)C(NC(=O)CN(c1ccc2c(c1)OCCO2)S(=O)(=O)c1ccccc1)C(C)C,-0.872%
8,Cn1c(SCC(=O)NCCCN2CCOCC2)nc2ccccc2c1=O,3.93%
9,COc1ccc(-n2ncc3c2ncn2nc(-c4ccccc4Cl)nc32)cc1,-1.11%
10,N#CCNC(=O)C(Cc1cc(Cl)cc(Cl)c1)NC(=O)c1ccc(Cl)cc1 (stereo not shown),17%
11,CCOc1ccc(C(=O)N(Cc2cccs2)C2CCS(=O)(=O)C2)cc1 (stereo not shown),-4.18%
12,O=C(O)CCSc1ccc([N+](=O)[O-])cc1,-5.62%
13,C/C(=C\c1ccccc1)c1nc2c(=O)n(C)c(=O)nc-2n(C)n1,2.19%
14,N#CC1=C(N)Oc2cc(N)ccc2C1c1ccccc1F (stereo not shown),0.687%
15,COc1ccc(-[n+]2cc(O)on2)cc1,1.72%
16,CC(C)NC(=O)c1sc2nc(-c3cccs3)cc(-c3ccc(F)cc3)c2c1N,-3.5%
17,O=C(CN1C(=O)c2ccccc2S1(=O)=O)NCCSCc1ccc(Cl)c(Cl)c1,5.01%
18,Cc1ccc(S(=O)(=O)N(CCC#N)C2CCCCC2)c2nsnc12,0.266%
19,CCC(C)NC(=O)c1cc(C2CC2)[nH]n1 (stereo not shown),1.41%
20,Cc1nn(C)c(C)c1CN(C)S(=O)(=O)c1ccc2ccccc2c1,0.528%
21,Cn1c(=O)c2c(nc(NCCCn3ccnc3)n2Cc2ccc(F)cc2)n(C)c1=O,17.1%
22,O=C(CCNS(=O)(=O)c1ccc2nc(O)ccc2c1)NC1CCCc2ccccc21 (stereo not shown),-2.26%
23,O=C(NCCSc1nnnn1-c1ccccc1)c1ccccc1,-2.85%
24,Cc1nnc(-c2cccc3ccccc23)o1,-0.216%
25,Cc1nc(S)c(C#N)c(C)c1C(=O)Nc1ccccc1,2.01%
26,COc1ccccc1NC(=O)c1ccccc1F,-3.82%

row,Compound,% Inhibition @ 10 uM
1,COc1ccc(C(=O)Nc2cnc3ccccn3c2=O)cc1,-7.15%
2,COc1cc2c(cc1OC)CN(Cc1ccc3ccccc3c1)CC2,-1.98%
3,CC(=O)Nc1ccc(S(=O)(=O)Nc2cccc(NC(=O)C(C)(C)C)c2)cc1,-1.95%
4,O=C(NCc1ccco1)c1ccccc1Br,21.4%
5,CN(CCC#N)C(=O)c1cc2c(Cl)nc3ccccc3c2s1,1.94%
6,COc1ccc2c(Sc3ccc(Cl)cc3)c(C(=O)NCCCN3CCN(C)CC3)[nH]c2c1,-3.76%
7,Cc1ccc(F)cc1NC(=O)CSc1ccc(Cl)cc1,-2.64%
8,O=S(=O)(NCc1csc(-c2cccnc2)n1)c1ccc2c(c1)OCCO2,-2.45%
9,CC1CCC(C)N(C(=O)c2cc3n(n2)C(C(F)(F)F)CC(c2ccccc2)N3)C1 (stereo not shown),-3.83%
10,COc1cc(C2C=C(c3ccc(Cl)cc3)Nc3nnnn32)cc(OC)c1OC (stereo not shown),3.32%
11,Cc1nn(-c2ccccc2)c(-n2cccc2)c1C(=O)NC1CC1,0.137%
12,CCN(CC)CC#CC(O)(C(C)C)C(C)C,-0.771%
13,COc1ccc2c(c1)CCc1sc(NC(=O)c3cc(Cl)ccc3OC)nc1-2,-3.64%
14,CC(c1ccccc1)N1CC(O)C1 (stereo not shown),-3.38%
15,CC1CCCN(C(=O)C2c3ccccc3C(=O)N(C)C2c2c[nH]c3ccccc23)C1 (stereo not shown),-1.92%
16,CCCCOc1ccccc1C1C(C(=O)OCC)=CN(C)C=C1C(=O)OCC,6.48%
17,COc1ccc(-n2nnc3c(=O)n(CC(=O)NCc4ccc(F)cc4)cnc32)cc1,-2.16%
18,CN1CCC(N(C)Cc2cccc(F)c2)CC1,-3.65%
19,CC1CCc2c(sc3c2CSC(C(=O)NC2CC2)=C3)C1 (stereo not shown),4.48%
20,O=C(CCn1cccn1)NC1CCCCCC1,-4.17%
21,Cc1ccc(C(=O)c2sc3nc(-c4cccnc4)ccc3c2N)cc1,-0.261%
22,CCOC(=O)c1c(/N=C/N(C)C)c(C#N)c2n1CCC2,2.17% and 0.0345%
23,COc1ccccc1NC(=O)C1=C(C)N=C2CCCC(O)=C2C1c1cccc(F)c1 (stereo not shown),-2.64%
24,COc1ccccc1C(C)CC(NC(=O)OCc1ccccc1)C(=O)NCC#N (stereo not shown),1.35%
25,Cc1cccn2c(=O)c3cc(C(N)=S)c(=N)n(CCc4ccccc4)c3nc12,5.17%
26,N=C(NOC(=O)c1ccc(Br)o1)c1ccccn1,2.25%

row,Compound,% Inhibition @ 10 uM
1,CCN1CCN(C(=O)COc2ccc(S(=O)(=O)NC3CCCC3)cc2)CC1,1.94%
2,Cc1ccc(C(=O)Nc2nc(-c3nnn(-c4cc(C)ccc4C)c3C)ns2)cc1,-12.9%
3,c1coc(CNc2nc3ccccc3n2CCN2CCCCC2)c1,0.843%
4,CC1(C)C(=O)C(C)(C)C12SC[C@H]1C(=O)N(c3ccccc3)C(=O)[C@H]12,-1.12%
5,O=C1OC(c2cccc(Cl)c2)=N/C1=C\c1ccco1,1.25%
6,Cn1ncc(Cl)c(Oc2ccc(Cl)cc2)c1=O,0.526%
7,CCN1CCCC(NC(=O)c2cc(NC)ccc2OC)C1 (stereo not shown),-4.12%
8,Cc1cc(C)n2nc(CNC(=O)c3cccc(F)c3)nc2n1,2.84%
9,Cn1c(=O)c2c(nc(CN(Cc3ccccc3)Cc3ccccc3)n2Cc2ccccc2)n(C)c1=O,-2.29%
10,COC(=O)c1sc(N2C(=O)C(O)=C(C(=O)c3ccc(OC)c(C)c3)C2c2ccc(O)cc2)nc1C (stereo not shown),4.85%
11,CCCC(=O)Nc1ccc(Cl)c(NC(=O)c2cccnc2Cl)c1,16.8%
12,C=CCOc1c(CNc2nccs2)cccc1OCC,2.02%
13,O=C(Nc1ccc(F)cc1F)c1ccc(Cl)cc1,-2.36%
14,CCN(CCN(C)C)Cc1ccc(F)cc1,2.7%
15,CC(NC(=O)c1ccccc1)c1nc2ccccc2n1C(C)C (stereo not shown),12.1%
16,COc1ccc(CC(=O)Nc2cc(OC)c(OC)cc2C(=O)O)cc1,-3.34%
17,O=C1NC(=O)N(c2ccc(Br)cc2)C(=O)/C1=C\NCCc1c[nH]c2ccccc12,2.45%
18,COc1ccc(C2C(C(=O)N3CCN(C)CC3)c3ccccc3C(=O)N2Cc2ccc(F)cc2)cc1 (stereo not shown),7.99%
19,Cc1cccc(C(=O)O/N=C(\N)c2ccccn2)c1,4.06%
20,CCOC(=O)C1CCCN(CCc2ccccc2)C1 (stereo not shown),-0.817%
21,C=CCOc1ccc(/C=C2\SC(N)=NC2=O)cc1OC,0.997%
22,Cc1cccc(N2CC(C(=O)Nc3ccc(Cl)c(Cl)c3)CC2=O)c1C (stereo not shown),-0.992%
23,CN(c1ccccc1)S(=O)(=O)c1cc(Cl)ccc1Cl,5.43%
24,O=C(CN1C(=O)S/C(=C/c2ccc(F)cc2)C1=O)Nc1nccs1,-4.43%
25,CCOc1ccccc1NC(=O)c1c(Br)cnn1C,-2.74%
26,CC(C)Oc1ccc(CC/N=C(\N)N=C(N)N)cc1Cl,-2.87%

row,Compound,% Inhibition @ 10 uM
1,COc1ccc(N(CC(=O)N2CCCCC2)S(=O)(=O)c2ccc(C)cc2)cc1Cl,-2.74%
2,Cc1c(C(=O)OC2CCC(C)CC2)[nH]c2c1C(=O)CCC2 (stereo not shown),-0.0508%
3,O=C(O)C1CCCCC1C(=O)NCCC(c1ccccc1)c1ccccc1 (stereo not shown),0.389%
4,Cc1ccc(/C=C(\NC(=O)c2ccc(Cl)cc2)C(=O)N2CC3CC(C2)c2cccc(=O)n2C3)o1 (stereo not shown),1.76%
5,CCOc1ccc(-c2cnnn2-c2nonc2N)cc1OC,3.47%
6,Cc1cccc(-c2cc(C(=O)N3CCN(C)CC3)c3ccccc3n2)c1,1.64%
7,Cc1cc(C)nc(NC2=NC(=O)CC(C(=O)O)N2CCc2c[nH]c3ccccc23)n1 (stereo not shown),2.46%
8,CCOc1ccccc1/C=C1/N=C(c2cccc3ccccc23)OC1=O,-0.597%
9,Cc1nc2c(c(C)nn2-c2ccccc2)c(C)c1CCC(=O)NCc1ccc2c(c1)OCO2,0.953%
10,COCCNC(=O)/C(C#N)=C/c1c(Oc2ccccc2)nc2c(C)cccn2c1=O,-3.23%
11,CCOc1ccc(-c2[nH]nc3c2C(c2ccccc2F)C(C#N)=C(N)O3)cc1OC (stereo not shown),-6.59%
12,CCOC(=O)c1cnc2cc(C)nn2c1C,-3.74%
13,C/C=C/C(=O)Nc1cc(OC)c(Cl)cc1OC,1.41%
14,Cc1cccc(NC(=O)c2ccccc2Br)c1,1.55%
15,COc1ccccc1C(=O)Nc1cccc(Cl)c1,-2.21%
16,O=C(Cc1ccccc1)Nc1c2c(nc3c1CCC3)CCCC2,-2.65%
17,O=C(NCc1ccccc1)c1ccccc1NC(=O)C1CCCCC1C(=O)O (stereo not shown),2.84%
18,COc1ccccc1N/C=C1/C(=O)NC(=O)N(c2cccc(C)c2)C1=O,-6.7%
19,Cc1cc(C)nc(NC(=O)c2ccc(Cl)cc2)c1,-5.6%
20,O=C(/C=C/c1ccco1)N(Cc1ccccc1)c1ccccn1,-3.12%
21,CCOC(=O)N1CCN(C(=O)CC(c2ccccc2)c2ccccc2)CC1,-1.84%
22,N#CC1=C(SCc2ccccc2)NC(=O)CC1c1ccc(O)cc1 (stereo not shown),-2.35%
23,CCOc1ccc(C(=O)N2CCN(c3cccc(Cl)c3)CC2)cc1,-4.59%
24,CCc1ccccc1-n1nnc(-c2nc(-c3ccncc3)no2)c1N,3.73%
25,CC1(C)Cc2nc3sc4c(NCc5ccco5)ncnc4c3cc2CO1,-2.8%
